This note sets out measurements from the RNAGym collection of RNA variant scans (doi:10.1093/nar/gkz1192).

B1: CPEB3 Ribozyme (parent)
chain: UAACAGGGGGCCACAGCAGAAGCGUUCACGUCGCAGCCCCUGUCAGAUUCUGGUGAAUCUGCGAAUUCUGCUGUAUAUCUC

Read counts are not given, so values of variants with three or more changes are uncertain.

Variants of B1 are the subject of this data set. The data set can be described thus: self-cleavage, relative activity (ratio to wild type); higher = more cleavage; in vitro, sequencing. Put shortly: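 CPEB3 self-cleaving ribozyme mutant libraries were made by rounds of error-prone PCR, barcoded, and transcribed in vitro with T7 RNA polymerase for 5 hours at 37°C. Cleavage occurred during transcription and a 15 min DNase I step before EDTA stop. RNAs were reverse transcribed with template switching and Illumina-sequenced, with DNA sequencing mapping barcodes to variants. Relative activity is the variant's cleaved/total read fraction divided by wild type's (minimum 5 reads), averaged across three batches.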
A5G U43C U69C U78C: the self-cleavage is 0.22. For A5U A13U A20G U26C, the self-cleavage came to 0.29. Regarding A5G U31C A47G A56G U60C A77G U78C, the self-cleavage is 0.12. The value for A5G U54C U66C U78A was 0.09; that for A5G U43C A47G was 0.13.

As to A5G U43C U58C A64G, the self-cleavage is 0.21. The value for A5G U31C U76C U78C was 0.25; that for A5U A13G A77G was 1.09. As for A5U A13G A20G G33A A56U U67G A77G, the self-cleavage was found to be 0.06. In the case of A5G U48C U60A it was 0.42. The value for A5G U26C U41G A56U U78C was 0.25; that for A5G U51C G55A U76A was 0.41; that for A5G U41C U48C A64U was 0.19. For the variant A5G U54G U78A, the self-cleavage amounted to 0.17.

For the variant A5G U54A A57G C59U, the self-cleavage is 0.38. In the case of A5U A13U C32U A35U U49A it was 0.17.

For the variant A5G U49C U54A, the self-cleavage stood at 0.23. In the case of A5G U74C U80C, the self-cleavage came out at 1.07.

Take A5G U66C U67C U74A: the self-cleavage turned out to be 0.58. Take A5G U48C A57G U72A: the self-cleavage was 0.15. On to A5G U41C G42C U66C, for which the self-cleavage turned out to be 0.09. The value for A5G U54C U78C was 0.6. The value for A5U A13U A20G A21G A28G U72C was 0.43; that for A5U A13U A18G U48C A57G G61A was 0.38. In the case of A5G U31A U41C U69C it was 0.38. As for A5G U41C U43C, the self-cleavage was found to be 0.12.

For A5G U54C U76C, the self-cleavage stood at 0.89. In the case of A5G U48C A56U U58C C59G it was 0.14; in that of A5U A13G A20G A45G, 0.59; in that of A5G U43G U80C, 0.7. In the case of A5G U26G A77G it was 0.29; in that of A5G U26C C38G U41A U72C, 0.09. For the variant A5G U43C U54C U67C, the self-cleavage was 0.24.

As for A5G U31C U54G U72C, the self-cleavage was found to be 0.26. The value for A5U A13G U31C U49C G55C A64G U72A was 0.16. The value for A5G U41A U80A was 0.56; that for A5G U67C U72G was 0.09; that for A5G U26C A35G was 0.9. For A5G U49C U60C, the self-cleavage is 0.

Regarding A5U A13G U25C U26C C79U, the self-cleavage was determined as 0.71. Consider A5G U41C U66A, for which the self-cleavage was found to be 0.07. The value for A5G U31C G52U U72C was 0.3. In the case of A5G U26C C37U U43C U60C it was 0.07; in that of A5G U72C A75G U76C, 0.63; in that of A5G U43C A45G A47G U48C A57G U72A, 0.13. For A5G U49A U51C U58C, the self-cleavage came out at 0.14. For the variant A5G U26C A64G, the self-cleavage was found to be 0.52. Consider A5G U31C U74C, for which the self-cleavage came to 0.81.

A5G U31C U43C: the self-cleavage came out at 0.26. Regarding A5G U41C A56U, the self-cleavage stood at 0.47. Regarding A5G U49C G52C U67C U69A, the self-cleavage amounted to 0.19.

A5G U43A A57G U78C U80A: the self-cleavage worked out at 0.22. The value for A5G U31C C37U U74C was 0.53; that for A5G U78C U80A was 1.06.

Take A5G U31C U49C U72A C81U: the self-cleavage was determined as 0.26. In the case of A5G U43C A47C U54C U67C, the self-cleavage came to 0.31. In the case of A5G U54C U60A U66C it was 0.27; in that of A5G U58C C59G, 0.24; in that of A5G U49A U54C, 0.13. Consider A5U A13G U58C U72C, for which the self-cleavage is 0.19. The value for A5G U48C U58C A65G U69C A75G was 0.27; that for A5G U48C U58C U67C U72C was 0.25; that for A5G U26C A35U A64G was 0.22.

Consider A5G U26C U31C C37U U67A, for which the self-cleavage was 0.11. In the case of A5G U72C U74A U78C, the self-cleavage amounted to 0.91.

Regarding A5G U26C A57G U69C G70U, the self-cleavage turned out to be 0.21. In the case of A5U A13G A56U U72G U76C A77U it was 0.26. The value for A5G U66C A75G was 0.37; that for A5U A13U C27U U31G U43C U51A A77U was 0.13. Take A5G U31C A45G U49C G55U: the self-cleavage is 0.35.

For A5U A13G A15U U58C A64G, the self-cleavage was 0.11. As for A5G U72C U78C, the self-cleavage was 0.91. For the variant A5G U43A A64G A65G, the self-cleavage worked out at 0.17. Regarding A5G U31C U41C A45G, the self-cleavage was 0.58. With A5G U54A U60C, the self-cleavage came out at 0.32. In the case of A5G U41G A45G it was 0.07. With A5G U43A U54A U67C, the self-cleavage came to 0.15. Take A5G U72C C79U U80C: the self-cleavage was found to be 0.7. With A5G U31C U49C, the self-cleavage was 0.31.

Turning to A5G U31A U54A U78C, the self-cleavage was determined as 0.51. In the case of A5U A13G U66C it was 0.36. As to A5G U43C A64G, the self-cleavage is 0.18.

For the variant A5G U41A A47G U51A U69C, the self-cleavage worked out at 0.33. As for A5U A13U A20U A21U C23U C29U A45U, the self-cleavage amounted to 0.14. In the case of A5G U54C A65G it was 0.32; in that of A5G U69A U78C, 0.17; in that of A5G U43C A64G U72C, 0.25. With A5G U43C U51A A64U, the self-cleavage amounted to 0.19.

With A5U A13U A18U U43C U51C U78C, the self-cleavage amounted to 0.22.

For A5G U41C U43A U66C U80A, the self-cleavage came out at 0.22. For A5G U43C U58A, the self-cleavage was found to be 0.32. Turning to A5G U26C C32A, the self-cleavage is 0.03.

Consider A5G U49C A64G, for which the self-cleavage worked out at 0.11.

Regarding A5G U26C A56U U67C, the self-cleavage was 0.05. A5G U49G U51A: the self-cleavage came out at 0.1. In the case of A5U A13G A35G, the self-cleavage was 0.66.

On to A5G U43C U54C A64U, for which the self-cleavage worked out at 0.2. The value for A5G U67A G73A U80C was 0.66. As for A5G U41A U78A, the self-cleavage was 0.31.

Consider A5U A13C U26C U69C U72A, for which the self-cleavage was determined as 0.15.

As for A5G U51A A56G A75G, the self-cleavage amounted to 0.32. In the case of A5G U48C U58G it was 0.05; in that of A5U A13U A15G U25C A35U U60A, 0.12; in that of A5G U51A U54C U66G, 0.14. Turning to A5G U74A A75U, the self-cleavage came to 1.02. In the case of A5G U31C U51A C62U U69C U72C it was 0.09; in that of A5U A13U A18G A75U, 1.11; in that of A5U A13G U41G U48A U72C, 0.62. Consider A5G U43C U48A A75G, for which the self-cleavage turned out to be 0.07. In the case of A5G U26C A35G A64U A65G U69C it was 0.14; in that of A5G U54A U66C A75G U80C, 0.18; in that of A5G U26C U54C U74C A77U, 0.61. Turning to A5G U67C U78C, the self-cleavage turned out to be 0.11. Consider A5G U26C U67C U69C A75U, for which the self-cleavage is 0.15.

A5G U69C U80C: the self-cleavage turned out to be 0.39. As for A5G U26C G42A, the self-cleavage was 0.44.

A5G U51G C62U: the self-cleavage is 0.1.

As for A5G U26C A28U U51A G55A, the self-cleavage worked out at 0.21.

Consider A5G U41A A57U U66C C68A, for which the self-cleavage was 0.14. The value for A5G U43C U51G U69C was 0.08; that for A5U A13G C17G A18U U25C U26C was 0.45. Turning to A5G U26C U41A U43A C71U U76A, the self-cleavage was determined as 0.08.

For the variant A5G U31A A45U A65G U69C, the self-cleavage is 0.11. In the case of A5U A13G A20G it was 0.82; in that of A5G U31A A35G U43C A56U, 0.23. The value for A5G U60A U69A was 0.29; that for A5G U43C A45G U69A was 0.11; that for A5U A13G A20G U80C was 0.75. For the variant A5G U48C U51A U58C U69C, the self-cleavage worked out at 0.28. Turning to A5G U31C A45G U72C, the self-cleavage worked out at 0.39. In the case of A5G U31C G33U C39U A57G, the self-cleavage came to 0.65. The value for A5G U60C U72C U78C U80C was 0.22; that for A5G U41A U58C was 0.17. On to A5U A13G U31C, for which the self-cleavage came to 0.67.

In the case of A5G U26C C27A U51C, the self-cleavage amounted to 0.12. In the case of A5G U43C U54C U66C it was 0.12; in that of A5G U26G A45G, 0.51. As to A5G U41A C62U A65G A77U, the self-cleavage came to 0.48. Consider A5G U54A A75G, for which the self-cleavage is 0.64. In the case of A5G U51C G73U U74C it was 1.16; in that of A5G U48A A64U, 0.3.

Turning to A5G U49A U58C A77G, the self-cleavage is 0.16.

Regarding A5G U72C C79A, the self-cleavage is 0.77. In the case of A5G U41C U60C A64G U80A it was 0.09; in that of A5G U41A A56G A65G U66C, 0.16; in that of A5G U31C C39A A47G U48A, 0.37.

In the case of A5G U26C A45U A65G, the self-cleavage worked out at 0.11. As for A5G U26C U60A U72A, the self-cleavage amounted to 0.2. As for A5G U41C U43A A57G U66C, the self-cleavage amounted to 0.15. For the variant A5U A13G C29U G52U, the self-cleavage worked out at 0.29.

Consider A5G U31C U41A, for which the self-cleavage stood at 0.49.

In the case of A5G U31C U41C, the self-cleavage came out at 0.66.

For the variant A5G U41A U54C A56U U58C U69A, the self-cleavage was found to be 0.05. In the case of A5G U43A A56G U80C it was 0.4; in that of A5G U43G U67C U72C, 0.35; in that of A5U A13G A18U, 0.47. In the case of A5G U31C U54A U67C U69A it was 0.13. A5G U26G C62U U67C: the self-cleavage is 0.12. Take A5G U43C U51C U67C: the self-cleavage came out at 0.46. The value for A5G U43C C79U was 0; that for A5U A13G A28G U54C U58C C59U U66C was 0.08. In the case of A5G U31C C32U it was 0.19; in that of A5U A13C A18G U54C, 1.07.

Turning to A5G U49A A64U, the self-cleavage is 0.1. The value for A5G U66C U72G was 0.14; that for A5G U48C U69A was 0.2.

A5G U67C G73A: the self-cleavage was 0.17.
